Results as given in PubChem BioAssay (NCATS).
The shares of active, inactive and inconclusive entries below differ from those in the screen. Potencies beside an inconclusive call are fits to weak or partial responses and may not hold up. Activity calls are given as the source filed them. The call rests on the fitted dose curve; in most records, active means well fitted cell-killing curve with a large enough effect; inconclusive means small, poorly fitted or top-dose-only effect, or effect the other way; inactive means no such curve, though single readings can be large or run the other way.

Key:
[1] = Viability qHTS for spleen associated tyrosine kinase inhibitor (SYKi) naive MV4-11 cells (AID 1963823); conditions: MV4-11 AML viability, CellTiter-Glo luminescence, 72 h; series mostly up to 45 µM; further: nearly all actives have a fitted effect of over 40% in size
Summary of the method: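 In this viability screen, compounds acted on SYK inhibitor naive MV4-11 cells for three days (72 hr, 37 C). Remaining viable cells were measured by CellTiter-Glo luminescence following a 10 min room-temperature development.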

[2] = Viability qHTS for spleen associated tyrosine kinase inhibitor (SYKi) drug resistant MV4-11 cells (AID 1963824); further: nearly all actives have a fitted effect of over 35% in size
Summary of the method: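 SYK-inhibitor-resistant MV4-11 AML cells were seeded at 500 per well onto compound and cultured 72 hours (37 °C, 5% CO2). CellTiter-Glo was then added, and after 10 min at room temperature, luminescence gave viability.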
Potency means the concentration at half of the fitted maximal effect; tags describe the fitted curve by direction and shape.

| SMILES | Potency [1] | Potency [2] |
| --- | --- | --- |
| CCn1nc(C(=O)O)c(=O)c2cc3c(cc21)OCO3 | inconclusive: 106 nM [cytotoxic, full curve] | inconclusive: 119 nM [cytotoxic, full curve] |
| CC(C)(O)c1coc(S(=O)(=O)NC(=O)Nc2c3c(cc4c2CCC4)CCC3)c1 | inactive | inactive |
| COc1ccc(C2Oc3c(OC)cc(CCCO)cc3C2COC2OC(CO)C(O)C(O)C2O)cc1OC (stereo unspecified) | inconclusive: 3550 nM [cytotoxic, partial curve, poor fit] | inconclusive: 2000 nM [cytotoxic, partial curve] |
